Measurements taken from the supplement of paper PMC12340641.
In all, about 1,000 compounds were measured (“relative growth in counter assay (no AraC = 100%, AraC + DMSO = 0%)”: median about -1.1, highest 2% from about 20 on). This is one part of the list.

tested on: HEK293FT dCK*-only; test: relative growth in counter assay (no AraC = 100%, AraC + DMSO = 0%); higher = more growth rescue independent of IKZF1; settings: compound concentration: 5 uM; AraC concentration: 0.3 uM; overnight pretreatment + 4 days AraC
Protocol: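 Growth recovery screen of the molecular-glue-like (Specs) library. HEK293FT cells expressing a dCK*-IKZF1 fusion (primary) or dCK* alone (counter) were pretreated overnight with compound at 5 uM, then given 0.3 uM AraC for 4 days. Hoechst nuclei were counted by imaging. Primary: normalised to pomalidomide (100%) and DMSO (0%), mean of 2 replicates. Counter: normalised to no-AraC (100%) and AraC+DMSO (0%), single replicate.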

Compound | relative growth in counter assay
Cc1nc(Nc2cccc(C3CCN(C(=O)CCc4c(C)n[nH]c4C)CC3)n2)sc1C | 9.88%
COc1cc(NS(=O)(=O)c2ccc(NC(=O)CCC(=O)O)cc2)nc(OC)n1 | 0.12%
O=C1CCC(N2C(=O)c3cccc(N4CCC(Cn5cc(C(=O)O)cn5)CC4)c3C2=O)C(=O)N1 (stereo not given) | 4.03%
COc1ccc(NS(=O)(=O)c2ccc(N)cc2)nn1 | -2.37%
COc1ccc(CC(=O)Nc2ccc(S(=O)(=O)Nc3ncccn3)cc2)cc1OC | -21.6%
O=C1CCC(N2C(=O)c3cc(F)c(N4CCN(C5CCC(C(=O)O)CC5)CC4)cc3C2=O)C(=O)N1 (stereo not given) | 4.66%
COCC(=O)N1CCCC1c1cccc(Nc2ncc(C)s2)n1 (stereo not given) | 0.29%
Cc1cccc(OCCCC(=O)Nc2ccc(S(=O)(=O)Nc3nc(C)cc(C)n3)cc2)c1 | 0.67%
Cc1csc(Nc2cccc(C3CCCN3C(=O)c3ccc4c(c3)CCCN4C)n2)n1 (stereo not given) | 13.3%
O=C(O)CCOCCOCCOCCNc1ccc2c(c1)C(=O)N(C1CCC(=O)NC1=O)C2=O (stereo not given) | 9.38%
Cc1ccc(OCC(=O)Nc2ccc(S(=O)(=O)Nc3ncccn3)cc2)cc1C | 2.12%
Cc1nc(Nc2cccc(C3CN(CC(=O)N4CCC(C)CC4)CCO3)n2)sc1C (stereo not given) | 7.05%
Cc1csc(Nc2cccc(C3CN(C(=O)c4[nH]nc5c4CCCCC5)CCO3)n2)n1 (stereo not given) | 10%
CCc1ccc(N2CC(C(=O)Nc3ccc(S(=O)(=O)Nc4ncccn4)cc3)CC2=O)cc1 (stereo not given) | 5.54%
CCCc1cnc(Nc2cccc(C3(CO)CCN(C(=O)C4CCCCC4)CC3)n2)s1 | -21.5%
Cc1cc(C)cc(OCC(=O)Nc2ccc(S(=O)(=O)Nc3ccccn3)cc2)c1 | 3.13%
Cn1c(=O)c2c(ncn2CC(=O)Nc2ccc(S(=O)(=O)Nc3ncccn3)cc2)n(C)c1=O | 1.91%
COc1nccnc1NS(=O)(=O)c1ccc(NC(=S)NC(=O)c2ccco2)cc1 | 8.67%
COc1cc2c(cc1CCC(=O)N1CCCC1c1cccc(Nc3nccs3)n1)CCC2 (stereo not given) | -3.49%
COc1cc(C(=O)Nc2ccc(S(=O)(=O)Nc3ccccn3)cc2)cc(OC)c1OC | -0.76%
Cc1ccnc(NS(=O)(=O)c2ccc(NC(=O)c3ccccc3C(=O)O)cc2)n1 | -2.52%
O=C(Nc1ccc(Oc2ccc3c(c2)C(=O)N(c2ccc(O)cc2)C3=O)cc1)c1cccs1 | 3.48%
CNCC(=O)N1CCC(CO)(c2cccc(Nc3ncc(-c4ccccc4)s3)n2)CC1 | -9.33%
O=C(COc1ccc(Cl)cc1)Nc1ccc(S(=O)(=O)Nc2ccccn2)cc1 | -2.37%

Compound | relative growth in counter assay
Cc1cnc(Nc2cccc(CC3CCN(CC(N)=O)CC3)n2)s1 | -24.6%
O=C(O)CC1CCN(c2cccc3c2C(=O)N(C2CCC(=O)NC2=O)C3=O)CC1 (stereo not given) | 4.23%
CCOc1ccccc1C(=O)Nc1ccc(S(=O)(=O)Nc2ncccn2)cc1 | 6.59%
COc1nccnc1NS(=O)(=O)c1ccc(NC(=O)c2cccc(C)c2)cc1 | -1.6%
Cc1ccc(OCC(=O)Nc2ccc(S(=O)(=O)Nc3ccccn3)cc2)cc1C | -5.55%
COc1ccc(Cl)cc1NC(=O)CSc1nnc2c(n1)[nH]c1ccccc12 | -12%
COc1ccc(NS(=O)(=O)c2ccc(NS(=O)(=O)c3ccc(C)cc3)cc2)nn1 | -5.45%
Cc1cc(NS(=O)(=O)c2ccc(NC(=O)COc3cccc(Br)c3)cc2)nc(C)n1 | -1.85%
Cc1ccc2[nH]c3nc(SCC(=O)Nc4cccc(Cl)c4Cl)nnc3c2c1 | -17%
O=C(/C=C/c1cccnc1)N1CCCC(c2cc3ccccc3c(Nc3nccs3)n2)C1 (stereo not given) | -4.39%
Cc1cc(C)nc(NS(=O)(=O)c2ccc(NC(=S)NC(=O)/C=C/c3ccco3)cc2)n1 | -2.58%
O=C(CCCOc1ccc(Cl)cc1)Nc1ccc(S(=O)(=O)Nc2ncccn2)cc1 | 0.53%
CC(C)(C)C(=O)N1CCC(Cc2ccc(Nc3ncc(-c4ccc(F)cc4)s3)nc2)CC1 | 12.2%
COc1cccc(CC(=O)N2CCC(c3cccc(Nc4nc(C)c(C)s4)n3)CC2)c1 | 2.52%
CC(C)(C)c1ccc(OCC(=O)Nc2ccc(S(=O)(=O)Nc3ccccn3)cc2)cc1 | -2.22%
Cc1ccnc(NS(=O)(=O)c2ccc(NS(=O)(=O)c3ccc(F)cc3)cc2)n1 | -1.79%
O=C(COc1ccc(-c2ccccc2)cc1)Nc1ccc(S(=O)(=O)Nc2ccccn2)cc1 | -8.43%
Cc1cnc(Nc2cccc(C3CCCN3C(=O)COc3ccccc3)n2)s1 (stereo not given) | -20.5%
COc1ccc(C(=O)Nc2ccc(S(=O)(=O)Nc3ccccn3)cc2)cc1OC | 2.76%
O=C(Nc1ccc(S(=O)(=O)Nc2ncccn2)cc1)c1ccccc1F | -5.27%
O=C(O)CCOCCOCCNc1ccc2c(c1)C(=O)N(C1CCC(=O)NC1=O)C2=O (stereo not given) | -0.35%
COc1cccc(OC)c1C(=O)Nc1ccc(S(=O)(=O)Nc2nccc(C)n2)cc1 | -1.58%
Cc1cc(OCC(=O)Nc2ccc(S(=O)(=O)Nc3ncccn3)cc2)ccc1Cl | 5.52%
O=C(c1ccc2c(c1)OCCO2)N1CCC(c2cccc(Nc3nccs3)n2)CC1 | -18.7%

Compound | relative growth in counter assay
Cc1csc(Nc2cccc(C3CCCN3C(=O)c3cnc(C)nc3C)n2)n1 (stereo not given) | -4.08%
CC(C)(N)C(=O)N1CCC(CO)(c2cccc(Nc3ncc(-c4ccccc4)s3)n2)CC1 | -23.9%
CNC(=O)C(c1cccc(Nc2ncc(C)s2)n1)C1CCN(C(=O)c2cccc(Cl)c2F)CC1 (stereo not given) | -0.24%
Cc1cnc(Nc2cccc(C3CCN(C(=O)[C@@H]4CCCCN4)CC3)n2)s1 | -21%
CCOC(=O)c1ccc(N2C(=O)c3ccc(Oc4ccc(N)cc4)cc3C2=O)cc1 | 1.1%
Cc1cc(C)nc(NS(=O)(=O)c2ccc(NC(=S)NC(=O)/C=C/c3cccs3)cc2)n1 | -2.17%
Cc1csc(Nc2cccc(C3CN(C(=O)CCn4ncc5ccccc54)CCO3)n2)n1 (stereo not given) | 18.1%
Cc1ccnc(NS(=O)(=O)c2ccc(NC(=O)c3cccs3)cc2)n1 | -6.06%
Cc1cnc(Nc2cccc(C3CCCN3C(=O)Cn3cnc4ccccc43)n2)s1 (stereo not given) | -24.3%
CC(=O)Nc1ccc(S(=O)(=O)Nc2ccc(S(=O)(=O)Nc3nccc(C)n3)cc2)cc1 | -2.04%
COc1ccc2[nH]c(SCC(=O)Nc3ncccn3)nc2c1 | -6.84%
Cc1cnc(Nc2cccc(C3CCCN3C(=O)CCCc3ccc(F)cc3)n2)s1 (stereo not given) | 10.1%
CC(=O)Nc1ccc(C(=O)Nc2ccc(S(=O)(=O)Nc3nccc(C)n3)cc2)cc1 | -3.58%
Cc1cc(C)nc(NS(=O)(=O)c2ccc(NC(=O)c3cc4ccccc4oc3=O)cc2)n1 | -1.73%
O=C(Nc1ccc(S(=O)(=O)Nc2ccccn2)cc1)c1ccc(Cl)cc1 | 3.06%
O=C(COc1ccc(Cl)cc1)Nc1ccc(S(=O)(=O)Nc2ncccn2)cc1 | -5.81%
Cc1cnc(Nc2cccc(C(C(=O)N(C)C)C3CCN(C(=O)C4CCCCC4)CC3)n2)s1 (stereo not given) | 0.69%
CN(C)CC(=O)N1CCCC1c1cccc(Nc2nccs2)n1 (stereo not given) | -0.55%
Cc1csc(Nc2cccc(C3CCCN3C(=O)Cn3c(C)cc(C)nc3=O)n2)n1 (stereo not given) | -2.64%
COc1ccccc1/C=C/C(=O)Nc1ccc(S(=O)(=O)Nc2cc(C)nc(C)n2)cc1 | -22%
CCCc1cnc(Nc2cccc(C3CCN(C(=O)CNC(=O)OC(C)(C)C)CC3)n2)s1 | -6.76%
Cc1cccc(OCC(=O)Nc2ccc(S(=O)(=O)Nc3ncccn3)cc2)c1C | -5.94%
Cc1cc(C)nc(NS(=O)(=O)c2ccc(NC(=O)c3ccccc3Cl)cc2)n1 | -0.34%
O=C(CCn1ncc2c1CCCC2)N1CCOC(c2cccc(Nc3nccs3)n2)C1 (stereo not given) | 13.2%

Compound | relative growth in counter assay
COC(=O)CCC(=O)Nc1ccc(S(=O)(=O)Nc2cc(OC)nc(OC)n2)cc1 | -4.82%
O=C(O)CCOCCOCCOCCNc1cc2c(cc1F)C(=O)N(C1CCC(=O)NC1=O)C2=O (stereo not given) | 0.94%
Cc1cnc(Nc2cccc(C3CCN(C(=O)CCC4CCCCC4)CC3)n2)s1 | 8.69%
Cc1cnc(Nc2cccc(C3CN(C(=O)CC4CCCCC4)CCO3)n2)s1 (stereo not given) | -15.4%
COc1cc(NS(=O)(=O)c2ccc(NC(=O)C3CC3)cc2)nc(OC)n1 | -2.77%
Cc1cc(C)nc(NS(=O)(=O)c2ccc(Nc3nc(-c4ccc(C)c(C)c4)cs3)cc2)n1 | -1.55%
Cc1cnc(Nc2cccc(C3CCN(C(=O)C4(NC(=O)C(C)C)CCCCC4)CC3)n2)s1 | -24.4%
CCCc1cnc(Nc2cccc(C3CCN(C(=O)[C@@H]4CCCCN4C(=O)COC)CC3)n2)s1 | 0.85%
CCNc1nc(NCC)nc(NS(=O)(=O)c2ccc(N)cc2)n1 | -0.92%
NCC(=O)N1CCC(c2cccc(Nc3ncc(Br)s3)n2)CC1 | -20.7%
CC(C)(C)c1ccccc1OCC(=O)Nc1ccc(S(=O)(=O)Nc2ccccn2)cc1 | 4.41%
Cc1cnc(Nc2cccc(C3CCN(C(=O)C4CCC4)CC3)n2)s1 | -21%
Cc1ccc(OCC(=O)Nc2ccc(S(=O)(=O)Nc3nc(C)cc(C)n3)cc2)c(C)c1 | 0.72%
CC(=O)Nc1ccc(S(=O)(=O)Nc2ccc(Cl)cn2)cc1 | 11.9%
Cc1nc(Nc2cccc(C3CCCN3C(=O)c3n[nH]c4c3CCCC4)n2)sc1C (stereo not given) | 4.66%
Nc1ccc(S(=O)(=O)Nc2nccc(/C=C/c3ccc([N+](=O)[O-])cc3)n2)cc1 | 4.76%
COc1cccc(CCC(=O)N2CCOC(c3cccc(Nc4ncc(C)s4)n3)C2)c1 (stereo not given) | 6.36%
Cc1ccc(OCC(=O)Nc2ccc(S(=O)(=O)Nc3ccccn3)cc2)c(C)c1 | 4.7%
Cc1cc(C)nc(NS(=O)(=O)c2ccc(NC(=O)c3ccccc3Br)cc2)n1 | -0.06%
Cc1cnc(Nc2cccc(C3CN(C(=O)C4CCCCC4)CCO3)n2)s1 (stereo not given) | -16.6%
COc1cc(NS(=O)(=O)c2ccc(NC(=O)c3ccc(C)cc3)cc2)nc(OC)n1 | 12.5%
COCC(C)NC(=O)CN1CCC(c2cccc(Nc3nccs3)n2)CC1 (stereo not given) | -1.53%
CC(=O)N1CCCC1c1csc(Nc2ccccn2)n1 (stereo not given) | 6.68%
